Data published in PubChem BioAssay AID485294 (National Center for Advancing Translational Sciences (NCATS), 2010).
The whole screen tested about 370,000 compounds, of which about 150 (0.041%) were called active. This list was built around the results that the source calls inconclusive (neither active nor inactive); the mix of calls is not that of the screen. Calls follow the shape of the dose curve; as a rule, active = well fitted inhibition curve with a large enough effect; inconclusive = small, poorly fitted or top-dose-only effect; inactive = flat fitted curve, though single readings scatter. Potencies of inconclusive entries are left out as doubtful fits.
Also: nearly all actives have a fitted effect of over 25% in size.
Potency is read from the fitted curve at half-maximal effect; tags tell the direction and shape of the fitted curve.

These molecules were tested against Beta-lactamase (Escherichia coli (strain K12)) (UniProt P00811) (assay: qHTS Inhibitors of AmpC Beta-Lactamase (assay with detergent)). Conditions: AmpC hydrolysis of nitrocefin, absorbance 480 nm, 0.01% Triton; series mostly up to 114 µM.
Chain of UniProt P00811 (P00811 whole entry, looked up): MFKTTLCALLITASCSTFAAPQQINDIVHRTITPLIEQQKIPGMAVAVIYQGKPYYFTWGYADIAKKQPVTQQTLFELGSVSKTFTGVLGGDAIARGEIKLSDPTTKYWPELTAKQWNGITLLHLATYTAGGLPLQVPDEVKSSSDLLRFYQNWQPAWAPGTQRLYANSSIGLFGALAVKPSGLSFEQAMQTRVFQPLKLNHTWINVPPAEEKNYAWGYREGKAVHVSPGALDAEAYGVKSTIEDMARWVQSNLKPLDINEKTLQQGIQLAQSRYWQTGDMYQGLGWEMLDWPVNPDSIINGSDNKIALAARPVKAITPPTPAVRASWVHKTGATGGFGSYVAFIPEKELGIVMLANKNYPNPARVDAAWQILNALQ
Method in brief: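 AmpC (5.3 nM in the dispensed reagent) in 20 mM phosphate pH 7.0 with 0.01% (detergent screen) or 0.0001% Triton X-100 was preincubated with compounds for 15 min at room temperature. Nitrocefin was then added from an 800 uM solution, and hydrolysis was followed at 480 nm.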
In the case of `CCN1CCN(CCCNC(=O)c2cc3c(s2)-c2ccccc2OC3)CC1`, the Potency is reported as “inactive”. `Cc1ccc(S(=O)(=O)N2CCN(CC(=O)Nc3ccc([N+](=O)[O-])cc3)CC2)cc1C` was tested, and the Potency was inconclusive [inhibitor, full curve]. `COC(=O)c1c(-c2ccc(Br)cc2)noc1N` was tested, and the Potency was “inactive”. For `O=C(Nc1ccc(C(F)(F)F)cc1)C1(c2ccccc2)CC1`, the Potency was inconclusive [inhibitor, partial curve]. With `O=C1CC(c2ccccc2)Cc2nc(N3CCc4ccccc4C3)ncc21` (centres undefined) the Potency was inconclusive [inhibitor, partial curve]. `COc1ccc(CN2C(=O)c3ccccc3C2=O)cc1C(=O)Nc1ccc(C)cc1C` was tested, and the Potency was inconclusive [inhibitor, single point]. In the case of `CCCCOc1ccc(C(=O)N/C(=C/C=C/c2ccccc2)C(=O)NC)cc1`, the Potency is reported as “inactive”. With `CCOC(=O)N1CCN(C(=O)CCC(=O)c2ccc(OCC)cc2)CC1` the Potency was “inactive”. For `O=C(NNC(=S)NC1CCCCC1)c1ccccc1O`, the Potency was “inactive”. `COC12C(COC(N)=O)C3=C(C(=O)C(C)=C(N)C3=O)N1CC1C2N1C` (centres undefined) was tested, and the Potency was “inactive”. In the case of `C=CCn1c(SCn2nnc3ccccc3c2=O)nnc1-c1ccc(Cl)cc1`, the Potency is reported as inconclusive [inhibitor, partial curve, poor fit]. For `O=C(CN1C(=O)COc2ccc(S(=O)(=O)N3CCCC3)cc21)N1CCN(c2ccccc2)CC1`, the Potency was “inactive”. `CCC1CCCCN1CC(=O)c1c(C)[nH]c2ccc(OC)cc12` (centres undefined) was tested, and the Potency was “inactive”. `CCC(=O)Nc1ccc(-c2ccc(N3CCN(C)CC3)nn2)cc1` was tested, and the Potency was inconclusive [inhibitor, full curve, poor fit]. In the case of `Cc1ccc(C(C)C)c(OCC(=O)OCc2c(C)noc2C)c1`, the Potency is reported as inconclusive [inhibitor, full curve, poor fit]. For `CC(C)c1c(C(=O)N/N=C/c2ccc3c(c2)OCO3)nnn1-c1nonc1N`, the Potency was inconclusive [inhibitor, partial curve]. With `CC(=O)Nc1ccc(Nc2nc(C)c([N+](=O)[O-])c(Nc3ccc(NC(C)=O)cc3)n2)cc1` the Potency was inconclusive [inhibitor, full curve, poor fit]. `CN(C)S(=O)(=O)Oc1cccc(C(=O)Nc2ccccc2Cl)c1` was tested, and the Potency was “inactive”. For `CCOc1ccc(C(=O)CSc2nnc3ccccn23)cc1`, the Potency was inconclusive [inhibitor, single point]. For `O=S(=O)(c1ccccc1)N1CCN(C(c2ccccc2)c2ccc(OC(F)(F)F)cc2)CC1` (centres undefined), the Potency was inconclusive [inhibitor, full curve, poor fit]. `CC(C)(C)c1ccc(C(=O)Nc2ccccc2NC(=O)c2ccco2)cc1` was tested, and the Potency was “inactive”. In the case of `O=C1N(Cc2cccc(Cl)c2)C[C@@H]2C[C@@H](c3cccn3-c3cccnc3)N3CCC[C@@]123`, the Potency is reported as “inactive”. With `CCCOc1cccc(NC(=O)c2c(-c3ccccc3)noc2C)c1` the Potency was “inactive”. In the case of `CN(C)S(=O)(=O)c1ccc2oc(SCC(=O)c3c(N)n(C4CC4)c(=O)[nH]c3=O)nc2c1`, the Potency is reported as inconclusive [inhibitor, partial curve, poor fit]. In the case of `CCOc1ccc(C(=O)NCc2nc3cccnc3n2Cc2cccc(OC)c2)cc1`, the Potency is reported as “inactive”. `COc1cc(CC(=O)OCC(=O)Nc2sccc2C(N)=O)cc(OC)c1OC` was tested, and the Potency was inconclusive [inhibitor, partial curve, poor fit]. `O=C(CSc1nnnn1C1CCCCC1)N1CCCC1` was tested, and the Potency was inconclusive [inhibitor, full curve, poor fit]. In the case of `COc1ccc2c(c1)c1nnc(SCC(=O)N3CCCCC3C)nc1n2C` (centres undefined), the Potency is reported as inconclusive [inhibitor, partial curve]. `O=C(c1ccc(OCC2CCCO2)cc1)N1CCN(S(=O)(=O)c2cccc(F)c2)CC1` (centres undefined) was tested, and the Potency was inconclusive [inhibitor, partial curve, poor fit]. With `CC(C)[C@H](NC(N)=O)C(=O)Nc1ccc(OCc2ccccc2)cc1` the Potency was inconclusive [inhibitor, full curve, poor fit]. In the case of `O=C(COC(=O)c1cncc(Br)c1)NCC1CCCO1` (centres undefined), the Potency is reported as inconclusive [inhibitor, full curve]. With `COc1ccccc1C(=O)NCC(=O)OCC(=O)Nc1ccc2[nH]c(=O)[nH]c2c1` the Potency was inconclusive [inhibitor, full curve, poor fit]. With `COc1ccc(-c2nnc(SCC(=O)Nc3cc(F)ccc3C)o2)cc1` the Potency was inconclusive [inhibitor, full curve, poor fit]. With `C/C(CC(=O)Nc1ccc(Cl)c(Cl)c1)=N\NC(N)=S` the Potency was “inactive”. `COc1cc(-c2noc(C3CCCN(C(=O)c4c(F)cccc4F)C3)n2)cc(OC)c1OC` (centres undefined) was tested, and the Potency was inconclusive [inhibitor, full curve]. In the case of `Cc1ccc(-n2ncc3c(=O)n(CC(=O)N(C)C)cnc32)cc1C`, the Potency is reported as inconclusive [inhibitor, partial curve]. `O=C(O)CCCN1C(=O)C2C3C=CC(C2C1=O)C1C(=O)N(CCCC(=O)O)C(=O)C31` (centres undefined) was tested, and the Potency was inconclusive [inhibitor, partial curve]. In the case of `COc1cccc(/C=N/NC(=O)c2ccc(CN3c4cccc5cccc(c45)S3(=O)=O)cc2)c1`, the Potency is reported as inconclusive [inhibitor, full curve, poor fit]. `Cc1cc(C)nc(SCc2nnc(SCC(=O)Nc3ccc(C)c(C)c3)o2)n1` was tested, and the Potency was inconclusive [inhibitor, partial curve, poor fit]. For `CC(c1ccccc1F)n1cc(C(=O)Nc2ccc3nc[nH]c3c2)nn1` (centres undefined), the Potency was inconclusive [inhibitor, partial curve, poor fit]. For `CCCSC1=NN2CCCC(=O)N=C2S1`, the Potency was “inactive”. For `CCOC(=O)c1cc2c(=O)n3ccccc3nc2n(Cc2ccco2)c1=NC(=O)c1ccc(C)c(C)c1`, the Potency was “inactive”. In the case of `CCSCCNC(=O)c1cc(-n2cnnc2)ccc1Cl`, the Potency is reported as inconclusive [inhibitor, full curve, poor fit]. `O=C(Nc1cc2c(cc1C(=O)c1cccc(Br)c1)OCCO2)c1ccccc1F` was tested, and the Potency was “inactive”. `CCOC(=O)C1CCN(c2c(C(=O)c3ccc(OC)cc3)cnc3ccccc23)CC1` was tested, and the Potency was “inactive”. In the case of `Cc1ccc(NC(=O)CCc2nnc3ccc(N4CCN(C)CC4)nn23)cc1F`, the Potency is reported as inconclusive [inhibitor, full curve, poor fit]. In the case of `Cc1nc2ccc(Br)cn2c1C(=O)N/N=C\c1ccccc1Cl`, the Potency is reported as inconclusive [inhibitor, full curve, poor fit]. `C[n+]1cc[nH]c1SCC(=O)c1ccccc1` was tested, and the Potency was inconclusive [inhibitor, full curve, poor fit]. In the case of `O=S(=O)(c1cccc(F)c1)N1CCc2sccc2C1c1ccc(OC(F)(F)F)cc1` (centres undefined), the Potency is reported as “inactive”. `O=C(Nc1cccc(S(=O)(=O)NC2=NCCCCC2)c1)c1cc(-c2ccccc2)nc2ccccc12` was tested, and the Potency was “inactive”. With `O=C(c1ccc(Cl)cc1)N1CCN(C(=O)c2ccco2)CC1` the Potency was inconclusive [inhibitor, full curve, poor fit]. `CC(NC(=O)COC(=O)CCc1ccc(S(=O)(=O)N2CCOCC2)cc1)C1CC2CCC1C2` (centres undefined) was tested, and the Potency was “inactive”. `CC(=O)CSc1ncnc2sc3c(c12)CCC(C)C3` (centres undefined) was tested, and the Potency was inconclusive [inhibitor, partial curve]. In the case of `COc1c2c(cc3ccc(=O)oc13)CCO2`, the Potency is reported as inconclusive [inhibitor, partial curve, poor fit]. With `O=C(Nc1ncccn1)c1cc(-c2cccc(Br)c2)nc2ccccc12` the Potency was “inactive”. With `CN(C)C(CNC(=O)c1ccc(S(=O)(=O)Nc2ccccc2)cc1)c1ccco1` (centres undefined) the Potency was inconclusive [inhibitor, full curve, poor fit]. In the case of `O=C(O)c1ccccc1N/N=C/C1=C(N2CCOCC2)C(=C\c2ccccc2)/CC1`, the Potency is reported as inconclusive [inhibitor, partial curve, poor fit]. With `c1csc(-c2csc3nc(CN4CCOCC4)nc(NCc4ccc5c(c4)OCO5)c23)c1` the Potency was “inactive”. In the case of `O=C(c1cccc(C(F)(F)F)c1)C1CCCN(Cc2ccc(OCCO)cc2)C1` (centres undefined), the Potency is reported as inconclusive [inhibitor, single point]. `COc1ccc(NS(=O)(=O)c2c(F)cc(F)c(Cl)c2F)cc1S(=O)(=O)N1CCCCC1` was tested, and the Potency was “inactive”. With `CC(NC(=O)COC(=O)/C=C/c1ccc(Cl)cc1)c1ccccc1` (centres undefined) the Potency was inconclusive [inhibitor, full curve, poor fit]. With `COc1cc(C(=O)Cc2nc3ccccc3n2C)cc(OC)c1OC` the Potency was “inactive”. For `COc1ccccc1NC(=O)CSc1nnc(-c2ccccn2)o1`, the Potency was inconclusive [inhibitor, full curve, poor fit]. In the case of `Cc1ccccc1C(=O)NNC(=O)/C=C\C(=O)O`, the Potency is reported as “inactive”. For `COc1cccc(CNC(=O)CCC2CCCN(C3CCOCC3)C2)c1` (centres undefined), the Potency was “inactive”. With `COc1ccc(S(=O)(=O)Nc2ccc(-n3cnnn3)cc2)cc1Br` the Potency was inconclusive [inhibitor, full curve, poor fit]. With `O=c1cc(C(F)(F)F)nc(SC/C=C/c2ccccc2)[nH]1` the Potency was inconclusive [inhibitor, full curve, poor fit]. For `CN(CCCNC(=O)c1ccc(N2CCCC2=O)cc1)c1ccccc1`, the Potency was inconclusive [inhibitor, full curve, poor fit]. With `COc1ccc(CCC(=O)OCC(=O)Nc2c(C)nn(-c3ccccc3)c2C)cc1` the Potency was inconclusive [inhibitor, partial curve].
